Patent US20110319597A1 (CAPHALON AUSTRALIA, published 2011)
Blank lines part the entries; values can stand above or below the binder they belong to.

Biological target: recombinant human TNFα (human, UniProt P01375 in part)
Test: cell-based or functional assay

UniProt P01375, sequence (P01375 77-233 limits assumed): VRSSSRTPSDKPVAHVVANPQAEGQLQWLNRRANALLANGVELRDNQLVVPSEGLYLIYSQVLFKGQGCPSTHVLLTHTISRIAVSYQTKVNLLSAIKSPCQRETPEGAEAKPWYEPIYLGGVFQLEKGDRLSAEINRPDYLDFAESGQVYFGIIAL

B1: TNFα dAb Fc variant Q3Y (Fc fusion, name in Kabat numbering)
chain: DIYMTQSPSSLSASVGDRVTITCRASQAIDSYLHWYQQKPGKAPKLLIYSASNLETGVPSRFSGSGSGTDFTLTISSLLPEDFATYYCQQVVWRPFTFGQGTKVEIKRV[human IgG1 Fc with changes left out]
Standardized EC50, L929 neutralization assay (5-point): 0.45 µg/mL

B4: TNFα dAb Fc variant I2H (Fc fusion, name in Kabat numbering)
chain: DHQMTQSPSSLSASVGDRVTITCRASQAIDSYLHWYQQKPGKAPKLLIYSASNLETGVPSRFSGSGSGTDFTLTISSLLPEDFATYYCQQVVWRPFTFGQGTKVEIKRV[human IgG1 Fc with changes left out]
Standardized EC50, L929 neutralization assay (5-point): 80.7 µg/mL

B5: TNFα dAb Fc variant L11Y (Fc fusion, name in Kabat numbering)
chain: DIQMTQSPSSYSASVGDRVTITCRASQAIDSYLHWYQQKPGKAPKLLIYSASNLETGVPSRFSGSGSGTDFTLTISSLLPEDFATYYCQQVVWRPFTFGQGTKVEIKRV[human IgG1 Fc with changes left out]
Standardized EC50, L929 neutralization assay (5-point): 2.77 µg/mL

B6: TNFα dAb Fc variant K103S (Fc fusion, name in Kabat numbering)
chain: DIQMTQSPSSLSASVGDRVTITCRASQAIDSYLHWYQQKPGKAPKLLIYSASNLETGVPSRFSGSGSGTDFTLTISSLLPEDFATYYCQQVVWRPFTFGQGTSVEIKRV[human IgG1 Fc with changes left out]
Standardized EC50, L929 neutralization assay (5-point): 1.89 µg/mL

B9: TNFα dAb Fc variant Q6A (Fc fusion, name in Kabat numbering)
chain: DIQMTASPSSLSASVGDRVTITCRASQAIDSYLHWYQQKPGKAPKLLIYSASNLETGVPSRFSGSGSGTDFTLTISSLLPEDFATYYCQQVVWRPFTFGQGTKVEIKRV[human IgG1 Fc with changes left out]
Standardized EC50, L929 neutralization assay (5-point): 123 µg/mL

B10: TNFα dAb Fc variant S7L (Fc fusion, name in Kabat numbering)
chain: DIQMTQLPSSLSASVGDRVTITCRASQAIDSYLHWYQQKPGKAPKLLIYSASNLETGVPSRFSGSGSGTDFTLTISSLLPEDFATYYCQQVVWRPFTFGQGTKVEIKRV[human IgG1 Fc with changes left out]
Standardized EC50, L929 neutralization assay (5-point): 1.64 µg/mL

B11: TNFα dAb Fc variant I2K (Fc fusion, name in Kabat numbering)
chain: DKQMTQSPSSLSASVGDRVTITCRASQAIDSYLHWYQQKPGKAPKLLIYSASNLETGVPSRFSGSGSGTDFTLTISSLLPEDFATYYCQQVVWRPFTFGQGTKVEIKRV[human IgG1 Fc with changes left out]
Standardized EC50, L929 neutralization assay (5-point): 2.79 µg/mL

B14: TNFα dAb Fc variant Q3L (Fc fusion, name in Kabat numbering)
chain: DILMTQSPSSLSASVGDRVTITCRASQAIDSYLHWYQQKPGKAPKLLIYSASNLETGVPSRFSGSGSGTDFTLTISSLLPEDFATYYCQQVVWRPFTFGQGTKVEIKRV[human IgG1 Fc with changes left out]
Standardized EC50, L929 neutralization assay (5-point): 6.44 µg/mL

B15: TNFα dAb Fc variant Q3H (Fc fusion, name in Kabat numbering)
chain: DIHMTQSPSSLSASVGDRVTITCRASQAIDSYLHWYQQKPGKAPKLLIYSASNLETGVPSRFSGSGSGTDFTLTISSLLPEDFATYYCQQVVWRPFTFGQGTKVEIKRV[human IgG1 Fc with changes left out]
Standardized EC50, L929 neutralization assay (5-point): 0.795 µg/mL

B16: TNFα dAb Fc variant Q3S (Fc fusion, name in Kabat numbering)
chain: DISMTQSPSSLSASVGDRVTITCRASQAIDSYLHWYQQKPGKAPKLLIYSASNLETGVPSRFSGSGSGTDFTLTISSLLPEDFATYYCQQVVWRPFTFGQGTKVEIKRV[human IgG1 Fc with changes left out]
Standardized EC50, L929 neutralization assay (5-point): 2.58 µg/mL

B17: TNFα dAb Fc variant S7A (Fc fusion, name in Kabat numbering)
chain: DIQMTQAPSSLSASVGDRVTITCRASQAIDSYLHWYQQKPGKAPKLLIYSASNLETGVPSRFSGSGSGTDFTLTISSLLPEDFATYYCQQVVWRPFTFGQGTKVEIKRV[human IgG1 Fc with changes left out]
Standardized EC50, L929 neutralization assay (5-point): 0.383 µg/mL

B18: TNFα dAb Fc variant Q3D (Fc fusion, name in Kabat numbering)
chain: DIDMTQSPSSLSASVGDRVTITCRASQAIDSYLHWYQQKPGKAPKLLIYSASNLETGVPSRFSGSGSGTDFTLTISSLLPEDFATYYCQQVVWRPFTFGQGTKVEIKRV[human IgG1 Fc with changes left out]
Standardized EC50, L929 neutralization assay (5-point): 0.809 µg/mL

B19: TNFα dAb Fc variant Q3A (Fc fusion, name in Kabat numbering)
chain: DIAMTQSPSSLSASVGDRVTITCRASQAIDSYLHWYQQKPGKAPKLLIYSASNLETGVPSRFSGSGSGTDFTLTISSLLPEDFATYYCQQVVWRPFTFGQGTKVEIKRV[human IgG1 Fc with changes left out]
Standardized EC50, L929 neutralization assay (5-point): 2.32 µg/mL

Continued, values first:

Standardized EC50, L929 neutralization assay (5-point): 1.76 µg/mL
B2: TNFα dAb Fc variant S10Y (Fc fusion, name in Kabat numbering)
chain: DIQMTQSPSYLSASVGDRVTITCRASQAIDSYLHWYQQKPGKAPKLLIYSASNLETGVPSRFSGSGSGTDFTLTISSLLPEDFATYYCQQVVWRPFTFGQGTKVEIKRV[human IgG1 Fc with changes left out]

Standardized EC50, L929 neutralization assay (5-point): 1.28 µg/mL
B3: TNFα dAb Fc variant S10H (Fc fusion, name in Kabat numbering)
chain: DIQMTQSPSHLSASVGDRVTITCRASQAIDSYLHWYQQKPGKAPKLLIYSASNLETGVPSRFSGSGSGTDFTLTISSLLPEDFATYYCQQVVWRPFTFGQGTKVEIKRV[human IgG1 Fc with changes left out]

Standardized EC50, L929 neutralization assay (5-point): 1.3 µg/mL
B7: TNFα dAb Fc variant S9P (Fc fusion, name in Kabat numbering)
chain: DIQMTQSPPSLSASVGDRVTITCRASQAIDSYLHWYQQKPGKAPKLLIYSASNLETGVPSRFSGSGSGTDFTLTISSLLPEDFATYYCQQVVWRPFTFGQGTKVEIKRV[human IgG1 Fc with changes left out]

Standardized EC50, L929 neutralization assay (5-point): 0.88 µg/mL
B8: TNFα dAb Fc variant S9D (Fc fusion, name in Kabat numbering)
chain: DIQMTQSPDSLSASVGDRVTITCRASQAIDSYLHWYQQKPGKAPKLLIYSASNLETGVPSRFSGSGSGTDFTLTISSLLPEDFATYYCQQVVWRPFTFGQGTKVEIKRV[human IgG1 Fc with changes left out]

Standardized EC50, L929 neutralization assay (5-point): 0.661 µg/mL
B12: TNFα dAb Fc variant S10A (Fc fusion, name in Kabat numbering)
chain: DIQMTQSPSALSASVGDRVTITCRASQAIDSYLHWYQQKPGKAPKLLIYSASNLETGVPSRFSGSGSGTDFTLTISSLLPEDFATYYCQQVVWRPFTFGQGTKVEIKRV[human IgG1 Fc with changes left out]

Standardized EC50, L929 neutralization assay (5-point): 1.17 µg/mL
B13: TNFα dAb Fc variant S9Q (Fc fusion, name in Kabat numbering)
chain: DIQMTQSPQSLSASVGDRVTITCRASQAIDSYLHWYQQKPGKAPKLLIYSASNLETGVPSRFSGSGSGTDFTLTISSLLPEDFATYYCQQVVWRPFTFGQGTKVEIKRV[human IgG1 Fc with changes left out]

Standardized EC50, L929 neutralization assay (5-point): 0.98 µg/mL
B20: TNFα dAb Fc variant S9L (Fc fusion, name in Kabat numbering)
chain: DIQMTQSPLSLSASVGDRVTITCRASQAIDSYLHWYQQKPGKAPKLLIYSASNLETGVPSRFSGSGSGTDFTLTISSLLPEDFATYYCQQVVWRPFTFGQGTKVEIKRV[human IgG1 Fc with changes left out]
